Data reported in PubChem BioAssay (NCI).
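The compound was tested at five concentrations on cells cultured in 96-well plates, with a 48-hour exposure period. GI50: concentration for 50% inhibition of growth. Definition used: TGI = concentration required for complete inhibition of growth.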

System: NCI-H322M lung
Assay: growth of human tumour cells (NCI), 48 h

Question: For `CC(C)=NOC(=O)Nc1cccc2c1OCO2`, which TGI is on record?
Answer: > 100 µM

Question: `CCOC(=O)CC(NC(=O)c1ccc(N=NN(C)C)cc1)C(=O)OCC` (stereo not given) was tested. Which TGI did it give?
Answer: > 100 µM

Question: With `CC(/C=N/N=C(N)N)=N\N=C(N)N` as the compound, how does the GI50 read?
Answer: 13 µM

Question: What about the TGI of the same compound?
Answer: 122 µM

Question: For `COC(=O)c1ccc(NCC2=C(Br)C(=O)C=CC2=O)cc1Cl`, which TGI is on record?
Answer: > 100 µM

Question: How did the TGI turn out when `O=c1[nH]nc(-c2ccccc2)n1-n1cnnc1` was run?
Answer: > 100 µM

Question: How did the TGI turn out when `COc1ccc(NC(=O)C2C(=O)N(c3ccc(OC)cc3)C(=O)/C2=N\NC(N)=O)cc1` (stereo not given) was run?
Answer: > 100 µM

Question: For `O=C(Nc1cccc(C(F)(F)F)c1)c1cc2ccccc2cc1O`, which GI50 is on record?
Answer: 2.43 µM

Question: And the TGI?
Answer: > 26.1 µM

Question: Which TGI does the source give for `CC(=O)Nc1ccc(-c2nnc(SCC(=O)Nc3ccc(Cl)cc3)o2)cc1` here?
Answer: 29.6 µM

Question: For `CN(C(=O)CNC(=O)/C=C/c1cccc(Cl)c1)C1CCS(=O)(=O)CC1`, which GI50 is on record?
Answer: 20.6 µM

Question: And the TGI?
Answer: > 100 µM

Question: With `CCCCCCCCCCCCOP(=O)(O)OP(=O)(O)OCC1OC(n2cc(C)c(=O)[nH]c2=O)CC1O` (stereo not given) as the compound, how does the TGI read?
Answer: > 100 µM

Question: What does the source list for `Cc1c(Cl)c(C)c(Cc2c(C)c(Cl)c(C)c(Cl)c2O)c(O)c1Cl`?
Answer: GI50: 3.56 µM; TGI: 12.3 µM

Question: With `CCNC(=S)N/N=C(\C)c1cccc(C)n1` as the compound, how does the TGI read?
Answer: > 100 µM

Question: For `CN(C)CCNC(=O)c1c(O)ccc2c1c1c(n2CCc2ccccc2)C(=O)c2ccccc2C1=O`, which TGI is on record?
Answer: 17.4 µM

Question: How did the TGI turn out when `O=[N+]([O-])/C(C(Cl)=C(Cl)Cl)=C(/Nc1ccccc1)Sc1ccccc1` was run?
Answer: 92 µM

Question: `CCCOC(=O)C1C2CCC(O2)C1C(=O)O` (stereo not given) was tested. Which TGI did it give?
Answer: > 100 µM

Question: Which GI50 does the source give for `Oc1ccc(Cl)cc1/C=N\NC(=S)N/N=C/c1cc(Cl)ccc1O` here?
Answer: 1.69 µM

Question: What about the TGI of the same compound?
Answer: > 100 µM

Question: Which TGI does the source give for `O=C(N/N=C\c1ccc([N+](=O)[O-])s1)c1ccncc1` here?
Answer: > 85.6 µM

Question: Which TGI does the source give for `CN/N=C(\C(=O)Nc1ccc(C)c(C)c1)C(C(=O)OC)c1nc2ccc([N+](=O)[O-])cc2[nH]c1=O` (stereo not given) here?
Answer: > 100 µM

Question: `Nc1c(C(=O)Nc2cccc3ccccc23)sc2nc3c(cc12)C(=O)CCC3` was tested. Which GI50 did it give?
Answer: 0.584 µM

Question: What about the TGI of the same compound?
Answer: > 89.1 µM
